The RNAGym collection of RNA variant scans (doi:10.7554/elife.90254)
Read counts are not given, so values of variants with three or more changes are uncertain.

B1: OR4K15 (parent)
chain: GUUAACGGUCAUAGGCCAUGGAAACUAGGAGCACCAUUUCGCUGCCAGUGAAGAAAUGAACAAAGAAAAUCUGGGCCAGGCAGGCAUCAAAAGAAAUAGUCUUGCGCUCAACCAGAAAGUCUGUAAUCAUUUUAAGGGUA

Variants of: B1
Assay: self-cleavage, relative activity (ratio to wild type); higher = more cleavage; in vitro, sequencing; the parent is a self-cleaving ribozyme

Row | Variant | self-cleavage
1 | GUUAACUGUCAUAGGCCAUGGAAACUAGGAGCACCAUUUCGCUGCCAGUGAAGAAGUGAACAAAGAAAAUCCGGGCCAGGCAGGCAUCAAAAGAAAUAGUCUUGCGCUCAACCAGAAAGUCUGUAAUCAUUUUAAGGGUA | 0.58
2 | GUUAACGGUCAUAGGCCAUGGAGACUAGGAGCACCAUUUCGCUGCCAGUGAAGAAAUGAACGAAGAAGAUCUGGGCCAGGCAGGCAUCAAAAGAAAUAGUCUUGCGCUCAACCAGAAAGUCUGUGAUCAUUCUAAGGGUA | 0.24
3 | GUUAACGGUCAUAGGCCUUGGAAACUAGGAGCACCAUUUCGCUGCCAGUGAAGAAAUGAACAAAGAAAAUCUGGGCCAGGCAGGCAUCAAAAGAAAUAGUCUUGCGCUCAACCAGAAAGUCUGUAAUCUUUUUAAGGGUG | 0.76
4 | GUUAACGGUCAUAGGCCAUGGAAACUAGGAGCACCAUUUCGCUGCCAGCGAAGAAAUGAACAAAGAAAAUCUGGGCCAGGCCGGCAUCAAAAGAGAUAGUCUUGCGCUCAACCAGAAAGUCUGUAAUCAUUUUAAGGGUA | 0.26
5 | GUUAACGGUCAUAGGCCUUGGAAACUAGGAGCACCAUUUCGCCGCCAGUGUAGAAAUGAACAAAUAAAAUCUGGGCCAGGCAGGCAUCAAAAGAAAUAGUCUUGCGCUCAACCGGAAAGUCUGUAAUCAUUUUAAGGGUA | 0.19
6 | GUUAACGGUCCUAGGCCAUGGAGACUAGGAGCACCAUUUCGCUGCCAGUGAAGAAAUGAACAAAGAACAUCUGGGCCAGGCAGGCAUCAAAAGAAAUAGUCUUGCGCUCAACCAGAAAGUCUGUAAUCAUUUUAAGGGUA | 1.57
7 | GUUAACGGUCAUAGGCCAAGGAAACUAGGAGCACCAUUCCGCUGCCAGUGAAGAAAUGUACAAAGAAAAUCCGGGCCAGGCAGGCAUCAAAGGAAAUAGUCUUGCGCUCAACCAGAAAGUCUGUAAUCAUUUUAAGGGUA | 0.17
8 | GUUAACGGUCGUAGGCCAUGGAAACUAGGAGCACCAUUUCGCUGCCAGUGAAGAAAUGAACAAAGAAAAUCUGGGCCAGGCAGGCACCAAAAGAAAUAGUCUUGCGCUCAACCAGAAAGUCUGUAACCAUUUUAAGGGUA | 0.12
9 | GUUAACGGUCAUAGGCCAUGGAAACUAGGAGCACCAUCUCGCCGCCAGUGAAGAAAUGAACAAAGAAAAUCUGGGCCAGGCAGGCAUCAAGAGAAAUAGUCUUGCGCUCAACCAGAAAGUCUGUAAUCAUUUUAAGGGUA | 0.97
10 | GUUAACGGUCAUAGGCCAUGGAAACUAGGAGCACCAUUUCGCUGCCAGUGAAGAAGUGAACAAAGAAAAUCUGGGCCAGGCAGGCACCAAAAGAAAUAGUCUUGCGCUCAACCAGAAAGUCAGUAAUCAUUUUAAGGGUA | 0.11
11 | GUUAACGGUCAUAGGCCAUGGAAACUAGGAGCACCAUUUCGCUGCCAGUGAAGAAGUGAACAAAGAAAAUCCGGGCCAGGCAGGCAUCAAAAGAAAUAGUCUUGCGCUCAACCAGAAAGCCUGUAAUCAUUUUAAGGGUA | 0.1
12 | GCUAACGGUCAUAGGCCAUGGAAACUAGAAGCACCAUUUCGCUGCCAGUGAAGAAAUGAACAAAGAAGAUCUGGGCCAGGCAGGCAUCAAAAGAAAUAGUCUUGCGCUCAACCAGAAAGUCUGUAAUCAUUAUAAGGGUA | 0.83
13 | GUUAACGGUCAUAGGCCAUGGAAACUAGGAGCACCAUUUCGCUGCCAGUGAAGAAAUGGACAAAGAAAGCCUGGGCCAGGCAGGCAUCAAAAGAAAUAGUCUUGCGCUCAACCAGAAAGUCUGUAAUCAUUUUAAGGGUA | 0.24
14 | GUUAACGGUCAUAGGCCAUGGAAGCUAGGAGCACCAUUUCGCUGCCAGUGAUGAAAUGAACAAAGAAAAUCUGGGCCAGGCAGGCAUCAAAAGAAAUAGCCUUGCGCCCAACCAGAAAGUCUGUAAUCAUUUUAAGGGUA | 0.03
15 | GUUAACGGUCACAGGCCAUGGGGACUAGGAGCACCAUUUCGCUGCCAGUGAAGAAAUGAACAAAGAAAAUCUGGGCCAGGCAGGCUUCAAAAGAAAUAGUCUUGCGCUCAACCAGAAAGUCUGUAAUCAUUUUAAGGGUA | 1.15
16 | GUUAACGGUCGUAGGCCAUGGAAACUAGGAGCACCAUUUCGCUGCCAGUGAAGAAAUGAUCAAAGAAAAUCUGGGCCAGGCAGGCAUCAAAAGAAAUAGUCUUGCGCCCAACCAGAAAGUCUGUAAUCAUUCUAAGGGUA | 0
17 | GUUAACGGUCAUAGGCCAUGGAAACUAGGAGCACCAUUUCGCUGCCAGUGAAGAAAUGAACAAAGAAAAUCUGGGCCAGGCAGGCAUCAAAAGAAAUAGUCUUGCGCUCAGCCAGAAUGUCUGUAGUCAUUCUAAGGGUA | 0
18 | GUUAACGGGCAUAGGCCAUGGAAACUAGGAGCACCAUUUCGCUGCCAGUGAAGAAAUGAACAAAGAAAACCUGGGCCAGGCAGGCACCAAAAGAAAUAGUCUUGCGCUCAACCAGAAAGCCUGUAAUCAUUUUAAGGGUA | 0.2
19 | GCUAACGGUCAUAGGCCAUGGAAACUAGGAGCACCAUUUCGCUGCCGGUGAAGAAAUGAACAAAGAAAAUCUGGGCCAGGCAGGCAUCAAAAGAAAUAGUCUUGCGCCCAACCAGAAAGUCUGUAAUCAUUUUAAGGGUA | 0.01
20 | GUUAACGGUCAUAGGCCAUGGAGACUAGGUGCACCAUUUCGCUGCCAGUGAAGAAAUGAACAAAGAAAAUCUGGGCCAGGCAGGCAUCAAAAGAAAUGGUCUUGCGCUCAACCAGAAAGUCUGUAAUCAUUUUAAGGGUA | 0.48
21 | GUUAACGGUCAUAGGCCAUGGAAACUAGGAGCACCAUUUCGCUGCCAGUGAAGAAAUGAACAAAGAAAAUCUGGGCCAGGCAGGCGUCAAAGGAAGUAGUCUUGCGUUCAACCAGAAAGUCUGUAAUCAUUUUAAGGGUA | 0
